Assay results reported in the supplement of paper PMC9174493.
This is one part of the list. Single values of this set are uncertain. Values with irradiation are relative to irradiated vehicle.

test system: A549-Dual; assay: ISRE reporter (Lucia luciferase) activity, viability-corrected, relative to vehicle (fold change vs vehicle); higher = more activation of STING-IRF / NF-kB immune response reporter; settings: 3 µM; irradiation: none

| Structure (SMILES) | ISRE reporter |
| --- | --- |
| CCCCC1(COC(=O)CCC(=O)O)C(=O)N(c2ccccc2)N(c2ccccc2)C1=O [Suxibuzone] | 1.09 |
| CS(=O)(=O)Nc1cc2occ(NC=O)c(=O)c2cc1Oc1ccccc1 [Iguratimod] | 0.602 |
| COc1cc2nccc(Oc3ccc(NC(=O)Nc4cc(C)on4)c(Cl)c3)c2cc1OC [Tivozanib (AV-951)] | 1.03 |
| Cc1ccc(S(=O)(=O)O)cc1.NC(=O)c1cccc2cn(-c3ccc(C4CCCNC4)cc3)nc12 (stereo unspecified) [Niraparib (MK-4827) tosylate] | 2.32 |
| CC(C)OC(=O)CCC/C=C\CC1C(O)CC(O)C1CCC(O)CCc1ccccc1 (stereo unspecified) [Latanoprost] | 0.594 |
| O=c1[nH]cc(F)c(=O)[nH]1 [Fluorouracil (5-Fluoracil, 5-FU)] | 1.71 |
| CC1(C(=O)O)CCC2(C)CCC3(C)C(=CC(=O)C4C5(C)CCC(OC6OC(C(=O)O)C(O)C(O)C6OC6OC(C(=O)O)C(O)C(O)C6O)C(C)(C)C5CCC43C)C2C1.N.N (stereo unspecified) [Diammonium Glycyrrhizinate] | 1.01 |
| CC1(C)CCC(CN2CCN(c3ccc(C(=O)NS(=O)(=O)c4ccc(NCC5CCOCC5)c([N+](=O)[O-])c4)c(Oc4cnc5[nH]ccc5c4)c3)CC2)=C(c2ccc(Cl)cc2)C1 [Venetoclax (ABT-199, GDC-0199)] | 0.645 |
| CCN(CC)Cc1cc(Nc2ccnc3cc(Cl)ccc23)ccc1O.Cl.Cl [Amodiaquine hydrochloride] | 1.43 |
| CCN(C(=O)c1c(O)c2c(Cl)cccc2n(C)c1=O)c1ccccc1 [Laquinimod] | 0.542 |
| O=C(c1ccc(OCCN2CCCCC2)cc1)c1c(-c2ccc(O)cc2)sc2cc(O)ccc12 [Raloxifene] | 0.749 |
